According to patent US12043670B2, “Anti-BCMA antibody-drug conjugates and methods of use” (Eisai R&D Management Co., Ltd., priority 2020, dated 2024):

B1: AB200-R1a-Fab_Vk4 (antibody)
heavy: QVQLVQSGAEVKKPGSSVKVSCKASGGTFSNYWMHWVRQAPGQGLEWMGATYRGHSDTYYNQKFKGRVTITADKSTSTAYMELSSLRSEDTAVYYCARGAIYHGYDVLDNWGQGTLVTVSSASTKGPSVFPLAPSSKSTSGGTAALGCLVKDYFPEPVTVSWNSGALTSGVHTFPAVLQSSGLYSLSSVVTVPSSSLGTQTYICNVNHKPSNTKVDKKVEPKSC
light: DIQMTQSPSSLSASVGDRVTITCTATQDITNYLNWYQQKPGKAPKLLIYYTSNLHSGVPSRFSGSGSGTDFTLTISSLQPEDFATYYCQQYRKLPWTFGQGTKLEIKRTVAAPSVFIFPPSDEQLKSGTASVVCLLNNFYPREAKVQWKVDNALQSGNSQESVTEQDSKDSTYSLSSTLTLSKADYEKHKVYACEVTHQGLSSPVTKSFNRGEC
B2: AB200-R1a-Fab_Vk9 (antibody)
heavy: QVQLVQSGAEVKKPGSSVKVSCKASGGTFSNYWMHWVRQAPGQGLEWMGATYRGHSDTYYNQKFKGRVTITADKSTSTAYMELSSLRSEDTAVYYCARGAIYHGYDVLDNWGQGTLVTVSSASTKGPSVFPLAPSSKSTSGGTAALGCLVKDYFPEPVTVSWNSGALTSGVHTFPAVLQSSGLYSLSSVVTVPSSSLGTQTYICNVNHKPSNTKVDKKVEPKSC
light: DIQMTQSPSSLSASVGDRVTITCSASQEISNYLNWYQQKPGKAPKLLIYATSNLHSGVPSRFSGSGSGTDFTLTISSLQPEDFATYYCQQYRKLPWSFGQGTKLEIKRTVAAPSVFIFPPSDEQLKSGTASVVCLLNNFYPREAKVQWKVDNALQSGNSQESVTEQDSKDSTYSLSSTLTLSKADYEKHKVYACEVTHQGLSSPVTKSFNRGEC
B3: AB200-R1a-Fab_Vk12 (antibody)
heavy: QVQLVQSGAEVKKPGSSVKVSCKASGGTFSNYWMHWVRQAPGQGLEWMGATYRGHSDTYYNQKFKGRVTITADKSTSTAYMELSSLRSEDTAVYYCARGAIYHGYDVLDNWGQGTLVTVSSASTKGPSVFPLAPSSKSTSGGTAALGCLVKDYFPEPVTVSWNSGALTSGVHTFPAVLQSSGLYSLSSVVTVPSSSLGTQTYICNVNHKPSNTKVDKKVEPKSC
light: DIQMTQSPSSLSASVGDRVTITCSASQDISNYLNWYQQKPGKAPKLLIYYATNLHSGVPSRFSGSGSGTDFTLTISSLQPEDFATYYCQQYRRLPWTFGQGTKLEIKRTVAAPSVFIFPPSDEQLKSGTASVVCLLNNFYPREAKVQWKVDNALQSGNSQESVTEQDSKDSTYSLSSTLTLSKADYEKHKVYACEVTHQGLSSPVTKSFNRGEC
B4: AB200-R1a-Fab_Vk6: AB200_Fab (D99H) heavy chain fragment paired with AB200 kappa variant 6 (round 1) (antibody)
heavy: QVQLVQSGAEVKKPGSSVKVSCKASGGTFSNYWMHWVRQAPGQGLEWMGATYRGHSDTYYNQKFKGRVTITADKSTSTAYMELSSLRSEDTAVYYCARGAIYHGYDVLDNWGQGTLVTVSSASTKGPSVFPLAPSSKSTSGGTAALGCLVKDYFPEPVTVSWNSGALTSGVHTFPAVLQSSGLYSLSSVVTVPSSSLGTQTYICNVNHKPSNTKVDKKVEPKSC
light: DIQMTQSPSSLSASVGDRVTITCSATQDISNYLNWYQQKPGKAPKLLIYFTSNLQSGVPSRFSGSGSGTDFTLTISSLQPEDFATYYCQQYRKLPWTFGQGTKLEIKRTVAAPSVFIFPPSDEQLKSGTASVVCLLNNFYPREAKVQWKVDNALQSGNSQESVTEQDSKDSTYSLSSTLTLSKADYEKHKVYACEVTHQGLSSPVTKSFNRGEC
B5: AB200-R1a-Fab_Vk13 (antibody)
heavy: QVQLVQSGAEVKKPGSSVKVSCKASGGTFSNYWMHWVRQAPGQGLEWMGATYRGHSDTYYNQKFKGRVTITADKSTSTAYMELSSLRSEDTAVYYCARGAIYHGYDVLDNWGQGTLVTVSSASTKGPSVFPLAPSSKSTSGGTAALGCLVKDYFPEPVTVSWNSGALTSGVHTFPAVLQSSGLYSLSSVVTVPSSSLGTQTYICNVNHKPSNTKVDKKVEPKSC
light: DIQMTQSPSSLSASVGDRVTITCSASNDISNYLNWYQQKPGKAPKLLIYYSSDLHSGVPSRFSGSGSGTDFTLTISSLQPEDFATYYCQQYRKLPWTFGQGTKLEIKRTVAAPSVFIFPPSDEQLKSGTASVVCLLNNFYPREAKVQWKVDNALQSGNSQESVTEQDSKDSTYSLSSTLTLSKADYEKHKVYACEVTHQGLSSPVTKSFNRGEC
B6: AB200-R1a-Fab_Vk5 (antibody)
heavy: QVQLVQSGAEVKKPGSSVKVSCKASGGTFSNYWMHWVRQAPGQGLEWMGATYRGHSDTYYNQKFKGRVTITADKSTSTAYMELSSLRSEDTAVYYCARGAIYHGYDVLDNWGQGTLVTVSSASTKGPSVFPLAPSSKSTSGGTAALGCLVKDYFPEPVTVSWNSGALTSGVHTFPAVLQSSGLYSLSSVVTVPSSSLGTQTYICNVNHKPSNTKVDKKVEPKSC
light: DIQMTQSPSSLSASVGDRVTITCSASQDISSYLNWYQQKPGKAPKLLIYYTSNLHSGVPSRFSGSGSGTDFTLTISSLQPEDFATYYCQQYRSTPWTFGQGTKLEIKRTVAAPSVFIFPPSDEQLKSGTASVVCLLNNFYPREAKVQWKVDNALQSGNSQESVTEQDSKDSTYSLSSTLTLSKADYEKHKVYACEVTHQGLSSPVTKSFNRGEC
B7: AB200-R1a-Fab_Vk11 (antibody)
heavy: QVQLVQSGAEVKKPGSSVKVSCKASGGTFSNYWMHWVRQAPGQGLEWMGATYRGHSDTYYNQKFKGRVTITADKSTSTAYMELSSLRSEDTAVYYCARGAIYHGYDVLDNWGQGTLVTVSSASTKGPSVFPLAPSSKSTSGGTAALGCLVKDYFPEPVTVSWNSGALTSGVHTFPAVLQSSGLYSLSSVVTVPSSSLGTQTYICNVNHKPSNTKVDKKVEPKSC
light: DIQMTQSPSSLSASVGDRVTITCRASQDVSNYLNWYQQKPGKAPKLLIYYTTNLHSGVPSRFSGSGSGTDFTLTISSLQPEDFATYYCQQYRKLPWTFGQGTKLEIKRTVAAPSVFIFPPSDEQLKSGTASVVCLLNNFYPREAKVQWKVDNALQSGNSQESVTEQDSKDSTYSLSSTLTLSKADYEKHKVYACEVTHQGLSSPVTKSFNRGEC
B8: AB200-R1a-Fab_Vk7 (antibody)
heavy: QVQLVQSGAEVKKPGSSVKVSCKASGGTFSNYWMHWVRQAPGQGLEWMGATYRGHSDTYYNQKFKGRVTITADKSTSTAYMELSSLRSEDTAVYYCARGAIYHGYDVLDNWGQGTLVTVSSASTKGPSVFPLAPSSKSTSGGTAALGCLVKDYFPEPVTVSWNSGALTSGVHTFPAVLQSSGLYSLSSVVTVPSSSLGTQTYICNVNHKPSNTKVDKKVEPKSC
light: DIQMTQSPSSLSASVGDRVTITCSASQDISNFLNWYQQKPGKAPKLLIYYTSNLHSGVPSRFSGSGSGTDFTLTISSLQPEDFATYYCQQFRKMPWTFGQGTKLEIKRTVAAPSVFIFPPSDEQLKSGTASVVCLLNNFYPREAKVQWKVDNALQSGNSQESVTEQDSKDSTYSLSSTLTLSKADYEKHKVYACEVTHQGLSSPVTKSFNRGEC
B9: AB200-R1a-Fab_Vk15 (antibody)
heavy: QVQLVQSGAEVKKPGSSVKVSCKASGGTFSNYWMHWVRQAPGQGLEWMGATYRGHSDTYYNQKFKGRVTITADKSTSTAYMELSSLRSEDTAVYYCARGAIYHGYDVLDNWGQGTLVTVSSASTKGPSVFPLAPSSKSTSGGTAALGCLVKDYFPEPVTVSWNSGALTSGVHTFPAVLQSSGLYSLSSVVTVPSSSLGTQTYICNVNHKPSNTKVDKKVEPKSC
light: DIQMTQSPSSLSASVGDRVTITCSASHEISNYLNWYQQKPGKAPKLLIYYTSSLHSGVPSRFSGSGSGTDFTLTISSLQPEDFATYYCQQYRKLPWTFGQGTKLEIKRTVAAPSVFIFPPSDEQLKSGTASVVCLLNNFYPREAKVQWKVDNALQSGNSQESVTEQDSKDSTYSLSSTLTLSKADYEKHKVYACEVTHQGLSSPVTKSFNRGEC
B10: AB200-R1a-Fab_Vk8 (antibody)
heavy: QVQLVQSGAEVKKPGSSVKVSCKASGGTFSNYWMHWVRQAPGQGLEWMGATYRGHSDTYYNQKFKGRVTITADKSTSTAYMELSSLRSEDTAVYYCARGAIYHGYDVLDNWGQGTLVTVSSASTKGPSVFPLAPSSKSTSGGTAALGCLVKDYFPEPVTVSWNSGALTSGVHTFPAVLQSSGLYSLSSVVTVPSSSLGTQTYICNVNHKPSNTKVDKKVEPKSC
light: DIQMTQSPSSLSASVGDRVTITCSASQDISNYLNWYQQKPGKAPKLLIYYTSNLQSGVPSRFSGSGSGTDFTLTISSLQPEDFATYYCHQSRKLPWTFGQGTKLEIKRTVAAPSVFIFPPSDEQLKSGTASVVCLLNNFYPREAKVQWKVDNALQSGNSQESVTEQDSKDSTYSLSSTLTLSKADYEKHKVYACEVTHQGLSSPVTKSFNRGEC
B11: AB200-R1a-Fab_Vk14 (antibody)
heavy: QVQLVQSGAEVKKPGSSVKVSCKASGGTFSNYWMHWVRQAPGQGLEWMGATYRGHSDTYYNQKFKGRVTITADKSTSTAYMELSSLRSEDTAVYYCARGAIYHGYDVLDNWGQGTLVTVSSASTKGPSVFPLAPSSKSTSGGTAALGCLVKDYFPEPVTVSWNSGALTSGVHTFPAVLQSSGLYSLSSVVTVPSSSLGTQTYICNVNHKPSNTKVDKKVEPKSC
light: DIQMTQSPSSLSASVGDRVTITCSASQDISNYLNWYQQKPGKAPKLLIYYSSNMHSGVPSRFSGSGSGTDFTLTISSLQPEDFATYYCQQFRKLPWTFGQGTKLEIKRTVAAPSVFIFPPSDEQLKSGTASVVCLLNNFYPREAKVQWKVDNALQSGNSQESVTEQDSKDSTYSLSSTLTLSKADYEKHKVYACEVTHQGLSSPVTKSFNRGEC
B12: AB200-R1a-Fab_Vk10 (antibody)
heavy: QVQLVQSGAEVKKPGSSVKVSCKASGGTFSNYWMHWVRQAPGQGLEWMGATYRGHSDTYYNQKFKGRVTITADKSTSTAYMELSSLRSEDTAVYYCARGAIYHGYDVLDNWGQGTLVTVSSASTKGPSVFPLAPSSKSTSGGTAALGCLVKDYFPEPVTVSWNSGALTSGVHTFPAVLQSSGLYSLSSVVTVPSSSLGTQTYICNVNHKPSNTKVDKKVEPKSC
light: DIQMTQSPSSLSASVGDRVTITCSASQSISNYLNWYQQKPGKAPKLLIYYTSNLHSGVPSRFSGSGSGTDFTLTISSLQPEDFATYYCQQSRKMPWTFGQGTKLEIKRTVAAPSVFIFPPSDEQLKSGTASVVCLLNNFYPREAKVQWKVDNALQSGNSQESVTEQDSKDSTYSLSSTLTLSKADYEKHKVYACEVTHQGLSSPVTKSFNRGEC

Assay: ThermoFluor thermostability (Tm)
Assay type: physicochemical
Conditions: Light chain screening Round 1; Fab, paired with heavy chain AB200_D99H
For B1, the Tm was 82.26 °C. B2 showed a Tm of 84.44 °C. For B3, the Tm was 83.23 °C. With B4 the Tm was 81.31 °C. For B5, the Tm was 79.40 °C. For B6, the Tm was 81.10 °C. Molecule B7 has a Tm of 83.58 °C. For B8, the Tm was 84.48 °C. B9 showed a Tm of 81.31 °C. In the case of B10, the Tm is reported as 83.90 °C. With B11 the Tm was 82.31 °C. With B12 the Tm was 86.11 °C.
